Measured values: PubChem BioAssay (Tox21)
“And” between values parts separate entries of the source, which are not always exact repeats. Equal entries are not always repeated. The shares of active, inactive and inconclusive entries below differ from those in the screen. Where the call is inconclusive, the potency comes from a doubtful curve fit. Some structures have more than one record in an assay (separate samples or runs), and their calls can disagree. The source made the active and inactive calls. Calls follow the shape of the dose curve; as a rule, active = well fitted curve in the direction sought with a large enough effect in the repeat runs; inconclusive = weak or mixed curves; inactive = no such curve, though single readings can be large; an effect the other way counts as inactive or inconclusive.
Potency is read from the fitted curve at half-maximal effect; tags tell the direction and shape of the fitted curve.

Experiment: qHTS RealTime-Glo MT Cell Viability Assay in HEK293 cells - 16 hour (AID 1224872); also: nearly all actives have a fitted effect of over 50% in size
Conditions: RealTime-Glo luminescence; series mostly up to 76.8 µM
Procedure, shortened: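 Reads taken at 0, 8, 16, 24, 32 and 40 h from the same wells. HEK293 cells (600/well) carried RealTime-Glo reagents from seeding, with compound added after a 5 h settle at 37 C.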
In the case of `c1ccc(Nc2ccc3ccccc3c2)cc1`, the Potency is reported as inconclusive: 43.4 µM [cytotoxic, partial curve] and inconclusive: 43.6 µM [cytotoxic, partial curve].
For `CCCCCCCCCC(CC)c1ccc(S(=O)(=O)O)cc1` (stereo not drawn), the Potency was inconclusive: 39.3 µM [cytotoxic, partial curve] and inconclusive: 9.52 µM [cytotoxic, partial curve] and inconclusive: 24.5 µM [cytotoxic].
With `Nc1ccc([As](=O)(O)O)cc1` the Potency was “inactive”.
With `C[C@H]1O[C@@H](O[C@H]2[C@@H](O)C[C@H](O[C@H]3[C@@H](O)C[C@H](O[C@H]4CC[C@@]5(C)[C@H](CC[C@@H]6[C@@H]5CC[C@]5(C)[C@@H](C7=CC(=O)OC7)CC[C@]65O)C4)O[C@@H]3C)O[C@@H]2C)C[C@H](O)[C@@H]1O` the Potency was inconclusive: 49.3 nM [cytotoxic, full curve] and active: 95.2 nM.
In the case of `BrCC(Br)(Br)Br`, the Potency is reported as active: 25.5 µM.
For `CSCCCN=C=S`, the Potency was inconclusive: 17.4 µM [cytotoxic, full curve, poor fit].
In the case of `O=c1[nH]c2ccccc2n1C1CCN(CCCC(c2ccc(F)cc2)c2ccc(F)cc2)CC1`, the Potency is reported as active: 13.8 µM and active: 19 µM.
For `Nc1c(Cl)c(F)nc(OCC(=O)O)c1Cl`, the Potency was “inactive”.
With `C[C@]12Cc3cn[nH]c3C[C@@H]1CC[C@@H]1[C@@H]2CC[C@@]2(C)[C@H]1CC[C@]2(C)O` the Potency was inconclusive: 21.3 µM [cytotoxic, partial curve, poor fit].
With `CC(=O)Nc1ccc2c(c1)Cc1ccccc1-2` the Potency was “inactive”.
In the case of `Clc1ccc(C(Cl)(Cl)Cl)c(Cl)c1`, the Potency is reported as inconclusive: 49.3 µM [cytotoxic, single point].
For `C=CCc1ccc(OC(=O)Cc2ccccc2)c(OC)c1`, the Potency was inconclusive: 1.95 µM [cytotoxic, single point].
For `Clc1ccccc1-c1ccccc1Cl`, the Potency was inconclusive: 35.2 µM [cytotoxic, partial curve].
With `O=C(CCCN1CCC2(CC1)C(=O)NCN2c1ccccc1)c1ccc(F)cc1` the Potency was active: 6.74 µM.
In the case of `NC(=O)OCCCc1ccccc1`, the Potency is reported as “inactive”.
In the case of `CCOc1cc(C(C)(C)C)ccc1C1COC(c2c(F)cccc2F)=N1` (stereo not drawn), the Potency is reported as inconclusive: 3.74 µM [cytotoxic, full curve].
For `C=CC1(C)OC(=O)N(c2cc(Cl)cc(Cl)c2)C1=O` (stereo not drawn), the Potency was “inactive”.

Experiment: qHTS RealTime-Glo MT Cell Viability Assay in HepG2 cells - 8 hour (AID 1224873); also: nearly all actives have a fitted effect of over 55% in size
Conditions: RealTime-Glo luminescence; series mostly up to 76.8 µM
Procedure, shortened: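 HepG2 cells mixed with RealTime-Glo MT reagents (NanoLuc plus cell-permeant prosubstrate) were seeded at 600 cells/well, incubated 5 h at 37 C/5% CO2, then pinned with compounds in DMSO; nonlytic luminescence tracked viability during 40 h treatment.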
In the case of `CCCCCCCCCC(CC)c1ccc(S(=O)(=O)O)cc1` (stereo not drawn), the Potency is reported as inconclusive: 61.6 µM [phenotype inactive, partial curve, poor fit].
With `CC(C)(c1ccccc1)c1ccc(O)cc1` the Potency was active: 49 µM.
With `O=c1[nH]c2ccccc2n1C1CCN(CCCC(c2ccc(F)cc2)c2ccc(F)cc2)CC1` the Potency was active: 43.6 µM.
For `CCCCCCCCCC[N+](C)(C)CCCCCCCCCC`, the Potency was active: 19.5 µM.
With `O=c1c(C2CC(c3ccc(-c4ccc(Br)cc4)cc3)Cc3ccccc32)c(O)sc2ccccc12` (stereo not drawn) the Potency was inconclusive: 23.9 µM [falling, partial curve, poor fit].
With `COc1ccc(C(CN(C)C)C2(O)CCCCC2)cc1` (stereo not drawn) the Potency was inconclusive: 21.9 µM [falling, single point].
With `O=[N+]([O-])c1cc([N+](=O)[O-])c2ccccc2c1` the Potency was inconclusive: 21.9 µM [phenotype inactive, single point].
In the case of `CCc1cccc(C)c1N(C(=O)CCl)C(C)COC` (stereo not drawn), the Potency is reported as “inactive”.
In the case of `CCCCCCCCCCCCCCC(Br)C(=O)O` (stereo not drawn), the Potency is reported as inconclusive: 0.977 µM [falling, full curve].

Experiment: qHTS RealTime-Glo MT Cell Viability Assay in HEK293 cells - 40 hour (AID 1224874); also: nearly all actives have a fitted effect of over 50% in size
Conditions: RealTime-Glo luminescence; max response: stronger effect = lower value
Procedure, shortened: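 Tox21 screen in HEK293 using RealTime-Glo MT chemistry, with cells and reagent co-dispensed. Luminescence proportional to viable cell number was captured at intervals during 40 h compound exposure at 37 C.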
With `c1ccc(Nc2ccc3ccccc3c2)cc1` the Potency was inconclusive: 48.7 µM [cytotoxic, partial curve] and inconclusive: 54.9 µM [cytotoxic, single point].
For `CSCCCN=C=S`, the Potency was inconclusive: 21.9 µM [cytotoxic, partial curve].
With `CC(C)(c1ccccc1)c1ccc(O)cc1` the Potency was active: 43.3 µM and active: 27.5 µM.
For `O=c1[nH]c2ccccc2n1C1CCN(CCCC(c2ccc(F)cc2)c2ccc(F)cc2)CC1`, the Potency was active: 17.4 µM and active: 16.9 µM.
In the case of `C[C@]12Cc3cn[nH]c3C[C@@H]1CC[C@@H]1[C@@H]2CC[C@@]2(C)[C@H]1CC[C@]2(C)O`, the Potency is reported as inconclusive: 19 µM [cytotoxic, partial curve].
For `CCOC(=O)CC(SP(=S)(OC)OC)C(=O)OCC` (stereo not drawn), the Potency was inconclusive: 30.9 µM [rising, partial curve, poor fit].
In the case of `Clc1ccc(C(Cl)(Cl)Cl)c(Cl)c1`, the Potency is reported as inconclusive: 49.3 µM [cytotoxic, single point].
For `C=CCc1ccc(OC(=O)Cc2ccccc2)c(OC)c1`, the Potency was inconclusive: 2.45 µM [cytotoxic, single point].
For `CCOC(=O)CC(=O)CCl`, the Potency was active: 43.6 µM.
For `Clc1ccccc1-c1ccccc1Cl`, the Potency was inconclusive: 70.2 µM [cytotoxic, single point].
For `O=C(CCCN1CCC2(CC1)C(=O)NCN2c1ccccc1)c1ccc(F)cc1`, the Potency was active: 13.4 µM.
For `CCOc1cc(C(C)(C)C)ccc1C1COC(c2c(F)cccc2F)=N1` (stereo not drawn), the Potency was inconclusive: 13.3 µM [cytotoxic, partial curve].
